# The supplement of paper PMC10338343
# ± gives the standard deviation. The entries are a selection whose mix differs from that of the whole data set.
# Test system: MIWI (PIWIL1) piRISC loaded with piRNA #1 (30 nt)
# Test: pre-steady-state target cleavage rate (min^-1); MIWI and MILI are mouse PIWI proteins and EfPiwi is from a freshwater sponge; tags in brackets are library labels; higher = faster piRNA-guided slicing of the target
# Details: guide: piRNA #1 5'p-UGAGGUAGUAGGUUGUAUAGUAUCCAGAGG; auxiliary factor: 500 nM mouse GTSF1
# Summary of the method: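 A burst-and-steady-state fit was used to obtain the pre-steady-state cleavage rate. The input data were sequencing reads of uncleaved targets, normalised to depth and to weakly complementary targets, from a […] transcribed, DNA-blocked target RNA library mixed with 1 nM active affinity-purified piRISC holding one synthetic guide, with or without 500 nM GTSF1 partner protein, in HEPES–potassium acetate buffer at 33 °C for 0–8 or 0–960 min. Three trials were pooled and k3 was capped at 0.0001 min^-1.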
# 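Further: 1 nM active piRISC with 0.1 nM target library at 33 °C single turnover.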
row,Sequence,pre-steady-state target cleavage rate
1,GGACUGGUUAGUAUACAACCUACUACCUCA,0.904 ± 0.12
2,GGACUGGUUACAAUACAACCUACUACCUCA,1.05 ± 0.13
3,GGUCUGGAUACUAUACAACCUACUACCUCC [g2:g28:cont:t1C],1.54 ± 0.11
4,GGAGAGGAUACUAUACAACGUACUUCCUCA,0.02 ± 0.0065
5,GCUCUCCUUACUAUACAACCUACUACCUCA,1.85 ± 0.12
6,GGUCUGGAUACUAUACAACCUACUUACCUCA,1.23 ± 0.084
7,GGAGUGGAUACUAUACAACCUACUGACCUCA,0.489 ± 0.043
8,GGAGACCUUACUUUACAACCAACUACCUCA,0.0162 ± 0.0045
9,GGACUGCAUACUAUAGAACCUACUACCUCA,1.26 ± 0.079
10,GGAGAGGAAACUAUACAACCUACAACCUCA,0.607 ± 0.058
11,CCUCAGGAUACUAUACAACGUACUACCUCA,0.78 ± 0.041
12,GGACUGGAUACUAUACAACCUACCACCUCA,0.387 ± 0.047
13,GGAGACCUAUCAAUACAAGCUACUACCUCA,0.0616 ± 0.015
14,GGAGAGGAUACUAUACAACUACUACCUCA,0.241 ± 0.021
15,GGAGAGCAUAGUAUACAACCUACUACCUCA,0.42 ± 0.027
16,GGAGUGGUUACUAUACAACCUACAACCUCA,0.386 ± 0.03
